Data as given in PubChem BioAssay AID761 (NMMLSC, 2007).
The campaign covered roughly 190,000 compounds. About 400 (0.21%) were called active. Inconclusive results, whose numbers are uncertain, are shown with a selection of clear calls.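 How the source made its calls: active means percent activity GTP binding at least 20 points away from the 100% baseline, either down as inhibitor or up as activator; inconclusive means compound flagged as likely green fluorescent from well-wide comparison; inactive means the rest.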

These molecules were tested against Cell division control protein 42 homolog (Homo sapiens) (UniProt P60953) (assay: modulators of GTP binding to wildtype Cdc42, primary screen, biochemical, multiplex bead flow cytometry, Bodipy-GTP (AID 761;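 further: median bead fluorescence of bound Bodipy-FL-GTP at 100 nM; 0% = excess unlabeled GTP control and 100% = no compound control; below 100% means less GTP binding so inhibitor and above means activator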)). Conditions: GST-Cdc42 beads, at 10 µM, actives lie on both sides.
UniProt P60953, sequence (P60953 whole entry, looked up): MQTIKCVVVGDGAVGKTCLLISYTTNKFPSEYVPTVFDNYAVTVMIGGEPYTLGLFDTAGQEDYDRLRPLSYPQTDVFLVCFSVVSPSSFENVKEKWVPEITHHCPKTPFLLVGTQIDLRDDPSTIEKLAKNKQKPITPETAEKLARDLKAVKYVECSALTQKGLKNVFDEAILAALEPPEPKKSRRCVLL

Row | Compound | percent activity (GTP binding)
1 | COc1ccc(NC(=O)c2cn(CCC#N)nc2-c2ccc([N+](=O)[O-])cc2)cc1 | inconclusive: 93%
2 | Cn1c(O)c(C(c2ccccn2)c2c(O)n(C)c(=S)[nH]c2=O)c(=O)[nH]c1=S | inactive: 102%
3 | Cc1cc(Br)c(NC(=O)CN2CC=C(c3ccccc3)CC2)c(Br)c1 | inconclusive: 93%
4 | CCN(CC)c1ccc(/C=N/c2sc3c(c2C#N)C2CCN3CC2)c(O)c1 | inconclusive: 112%
5 | CC(C)[C@H]1C(=O)O[C@H](C(C)C)C(=O)N(C)[C@@H](C(C)C)C(=O)O[C@H](C(C)C)C(=O)N(C)[C@@H](C(C)C)C(=O)O[C@H](C(C)C)C(=O)N1C | inconclusive: 94%
6 | Cc1ccc(NC(=O)c2snnc2C)cc1Cl | inconclusive: 91%
7 | Cc1cc(NC(=O)CCl)no1 | inconclusive: 96%
8 | OC(CCNCCc1c[nH]c2ccccc12)C(F)(F)F (stereo not drawn) | inactive: 99%
9 | O=C(O)C1C2c3ccccc3C(c3ccccc32)C1C(=O)Nc1ccccc1 (stereo not drawn) | inactive: 98%
10 | COc1ccc(CC(=O)N2CCN(C)CC2)cc1OC | inconclusive: 106%
11 | Cc1cc(C)cc(N2C(=O)NC(=O)/C(=C\C=C\c3ccco3)C2=O)c1 | active: 78%
12 | COCCCN=Cc1c(O)[nH]c(=S)[nH]c1=O | inactive: 97%
13 | NS(=O)(=O)c1cccc(N2CCNCC2)c1 | inconclusive: 95%
14 | COCCCn1c(N)c(C(=O)Nc2sc3c(c2C(=O)OC)CCCC3)c2nc3ccccc3nc21 | active: 67%
15 | COc1cc(OC)cc(C(=O)Nc2ccc(Br)cc2C(=O)c2ccccc2)c1 | inconclusive: 100%
16 | CN1CCN(C(=O)COc2ccc(Oc3ccccc3)cc2)CC1 | inconclusive: 95%
17 | CSCCC(N=Cc1c(O)n(-c2ccc(Br)cc2)c(=O)[nH]c1=O)C(=O)OC(C)(C)C (stereo not drawn) | inconclusive: 94%
18 | CN1C2CCC1CC(=NO)C2 | inactive: 98%
19 | CCC(=NCc1ccc2c(c1)OCO2)c1c(O)n(C)c(=O)n(C)c1=O | inconclusive: 92%
20 | Cc1nc2c(=O)n(C)c(=O)nc-2n(C)n1 | active: 77%
21 | CCCNC(=O)N1CCC2(CC1)OCCO2 | inactive: 96%
22 | CCOCCCn1c(N)c(C(=O)Nc2sc3c(c2C(=O)OC)CCCC3)c2nc3ccccc3nc21 | active: 72%

Row | Compound | percent activity (GTP binding)
23 | Cc1cc(C)c(NC2=NCCCS2)c(C)c1 | inconclusive: 103%
24 | COC(=O)c1cncn1C(C)c1ccccc1 (stereo not drawn) | inconclusive: 102%
25 | CCOC(=O)c1c(/N=C/C2C(=O)NC(=S)NC2=O)sc2c1CCC2 | inconclusive: 93%
26 | OC(C#CCN1CCOCC1)(c1ccccc1)C1CCCC1 (stereo not drawn) | inconclusive: 106%
27 | COc1cc2[nH]c(=O)n(-c3ccc(C)cc3)c(=O)c2cc1OC | inactive: 101%
28 | CC(C)OP(=O)(OC(C)C)C(O)c1ccc(Br)cc1 (stereo not drawn) | inconclusive: 104%
29 | CCN(CC)c1ccc(N=Cc2c(O)n(Cc3ccccc3)c(=O)[nH]c2=O)cc1 | inconclusive: 104%
30 | N=C1c2ccccc2CN1NC(=O)c1ccc(F)cc1 | inconclusive: 107%
31 | COc1ccc(C2NCCc3[nH]cnc32)cc1 (stereo not drawn) | inactive: 100%
32 | N#CC1=C(N)Oc2c(c(=O)sc3ccccc23)C1c1cccnc1 (stereo not drawn) | inactive: 91%
33 | CC(C)C1(C)N=C(c2nc3ccccc3cc2C(=O)O)NC1=O (stereo not drawn) | inactive: 103%
34 | CCn1c(O)c(C=Nc2ccc(S(N)(=O)=O)cc2)c(=O)n(CC)c1=S | inconclusive: 104%
35 | c1ccc(-c2[nH]c[n+](CC3CO3)c2-c2ccccc2)cc1 (stereo not drawn) | inconclusive: 108%
36 | CC(C)(C)C(=O)OCC12CCC(O1)C1(C)C(=O)OCC21 (stereo not drawn) | inconclusive: 103%
37 | CCN(CC)CCNCC(=O)Nc1ccc(Cl)cc1C(=O)c1ccccc1 | inconclusive: 104%
38 | COCCN1Cc2cc(=O)n3c([nH]c4ccccc43)c2C1=N | inconclusive: 92%
39 | COc1ccccc1N1C(=O)NC(=O)C2(Cc3cc(C)ccc3N(C)C2)C1=O (stereo not drawn) | inactive: 98%
40 | O=C1NC(=O)C(C/C=C/c2ccccc2)C(=O)N1 | inconclusive: 109%
41 | CCCCn1c(O)c(C(C)=NCc2ccc(F)cc2)c(=O)[nH]c1=O | inconclusive: 103%
42 | Cc1cc(C)cc(N2C(=O)NC(=O)/C(=C\c3cc(C)n(C)c3C)C2=O)c1 | inconclusive: 92%
43 | O=C(c1ccc(N2CC3CC(C2)c2cccc(=O)n2C3)c([N+](=O)[O-])c1)N1CCCC1 (stereo not drawn) | inactive: 97%
